Results reported in PubChem BioAssay AID1347073 (National Center for Advancing Translational Sciences (NCATS), 2019).
The whole screen tested about 45,000 compounds, of which about 200 (0.44%) were called active. The shares of active, inactive and inconclusive entries below differ from those in the screen. Calls follow the shape of the dose curve; as a rule, active = well fitted activation curve with a large enough effect; inconclusive = small, poorly fitted or top-dose-only effect; inactive = no such curve, though single readings can be large or run the other way. Where the call is inconclusive, the potency comes from a doubtful curve fit.

test: qHTS of TDP-43 Inhibitors: NCGC Sytravon Library Screen; conditions: yeast TDP-43 toxicity rescue, BacTiter-Glo growth, 24 h; growth rescue (activation): at 46.1 µM (top of the series); also: nearly all actives have a fitted effect of over 55% in size; as to growth rescue (activation): 0% is about no effect
Summary of the method: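 TDP-43-expressing yeast, pregrown in raffinose, seeded at OD600 0.02 in galactose medium with compound for 24 hr at 30 deg C. Growth read by BacTiter-Glo luminescence, so rescue of toxicity appears as activation.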
Potency is read from the fitted curve at half-maximal effect; tags tell the direction and shape of the fitted curve.

Compound | Potency | growth rescue (activation)
CC1(C(=O)NS(=O)(=O)Cc2ccccc2C(F)(F)F)CCN1C(=O)Cc1ccccc1 (stereo unspecified) | inactive | 
CCOC(=O)N1CCN(C(=O)c2ccc3nc(N4CCC(C)CC4)sc3c2)CC1 | inconclusive: 12.6 µM [activator, partial curve, poor fit] | 
CCCOc1ccc(CNC(=O)C(C)n2nc(C)n3c(cc4occc43)c2=O)cc1 (stereo unspecified) | inactive | 
O=C(CCSCc1cccc(Cl)c1)NCCC1=CCCCC1 | inconclusive: 22.4 µM [activator, single point] | 
O=S(=O)(Nc1nc2cc3c(cc2nc1Cl)OCCO3)c1ccccc1 | inconclusive: 35.5 µM [activator, single point] | 
O=C(NC1CCCCC1)c1cc(-c2cccs2)on1 | inactive | 
Cc1cccc(NC(=O)CN(C)C(=O)c2ccc(N3CCCCCC3)c([N+](=O)[O-])c2)c1C |  | inconclusive: 32.7% [activator]
Cc1ccc(C(=O)Sc2cccccc2=O)cc1 | inconclusive: 3.55 µM [activator, partial curve, poor fit] | 
O=C(NCCCn1ncc2ccccc21)c1cc(COc2c(F)cccc2F)on1 | inconclusive: 12.6 µM [activator, partial curve, poor fit] | 
CO/N=C\c1cc(C(=O)c2ccc(Cl)cc2Cl)cn1C | inconclusive: 11.2 µM [activator, partial curve] | 
COc1cccc(CNC(=O)Cc2ccc(Br)cc2)c1 | inconclusive: 11.2 µM [activator, partial curve, poor fit] | 
Fc1ccc(-c2nc3ccccc3c3nc4ccccc4n23)cc1 | inconclusive: 2.51 µM [activator, full curve, poor fit] | 
Cc1cc(N2C(=O)C(=O)/C(=C(/O)c3ccccc3)C2c2cccc(Br)c2)no1 (stereo unspecified) | inconclusive: 11.2 µM [activator, single point] | 
O=C(c1ccccc1NS(=O)(=O)c1ccc(F)cc1)N1CCc2ccccc21 | inconclusive: 35.5 µM [activator, single point] | 
Cc1nn(-c2ccccc2)c(N)c1N=Nc1ccc2ccccc2c1 | inconclusive: 17.8 µM [activator, single point] | 
O=C(Nc1cccc(S(=O)(=O)Nc2ccccc2Cl)c1)c1ccc(N2CCCC2)c([N+](=O)[O-])c1 | inconclusive: 12.6 µM [activator, partial curve, poor fit] | 
CN(C)S(=O)(=O)c1cccc(NC(=O)c2ccc3nccnc3c2)c1 | inconclusive: 35.5 µM [activator, partial curve, poor fit] | 
N/C(=N\OC(=O)c1cccc([N+](=O)[O-])c1)c1ccccn1 | inconclusive: 22.4 µM [activator, single point] | 
COc1ccccc1CNC(=O)c1cc(-c2cc(F)ccc2OC(C)C)n[nH]1 |  | inconclusive: 83.6% [activator]
COCCNc1nc2cc(-c3ccc(F)cc3)sc2c(=O)n1C |  | inconclusive: 33.2% [activator]
Cc1ccc(SCc2nc3ncccn3c2Br)cc1 | inconclusive: 11.2 µM [activator, partial curve, poor fit] | 

Compound | Potency | growth rescue (activation)
Cc1[nH]c2ccccc2c1N=Nc1cccc(C(=O)O)c1 | inconclusive: 15.8 µM [activator, partial curve, poor fit] | 
O=C(COC(=O)c1ccc(Cl)c(Cl)c1)Nc1cccnc1Cl | inconclusive: 5.62 µM [activator, partial curve] | 
O=C(CSC1=NCCS1)Nc1nc(-c2ccccc2)cs1 | inconclusive: 17.8 µM [activator, partial curve, poor fit] | 
O=C(NCc1ccc(Cl)cc1)c1cc2c(s1)-c1ccccc1SC2 | inconclusive: 12.6 µM [activator, partial curve] | 
Cc1nc(CNC(=O)c2cc(COc3ccc(F)cc3Cl)on2)cs1 | inconclusive: 11.2 µM [activator, partial curve, poor fit] | 
Brc1ccc(C2=CC(c3ccco3)n3ncnc3N2)cc1 (stereo unspecified) | inconclusive: 17.8 µM [activator, single point] | 
COc1ccccc1C(=O)Nc1ccc2nc(N3CCC(C)CC3)cc(C)c2c1 | inactive | 
Cc1nn(-c2ccccc2)c(N2CCCC2)c1/C=N/NC(=O)c1ccccc1O | inconclusive: 35.5 µM [activator, single point] | 
S=C(Nc1ccc(Br)cc1)N1CCCC1 | inconclusive: 12.6 µM [activator, partial curve, poor fit] | 
Cc1c(C(=O)NCc2ccc(Cl)cc2)sc2nc3n(c(=O)c12)CCCC3 | inconclusive: 31.6 µM [activator, single point] | 
Cc1ccc(S(=O)(=O)N2CCN(C(=O)CSc3nccn3C)CC2)cc1 | inactive | 
O=C(Nc1ccc(F)cc1)N1CCN(c2ccc(F)cc2)CC1 | inactive | 
COc1ccc(CNC(=O)COC(=O)C2CCC(C(C)(C)C)CC2)cc1 (stereo unspecified) | inconclusive: 25.1 µM [activator, partial curve, poor fit] | 
CC(C)NC(=O)NC(=O)COc1ccc(Br)cc1Br | inconclusive: 14.1 µM [activator, partial curve, poor fit] | 
N#C/C(=C\c1ccccc1[N+](=O)[O-])C(=O)NC1CCCCC1 | inconclusive: 22.4 µM [activator, single point] | 
O=C(O)C1CC(c2ccccc2)=Nc2ccccc2S1 (stereo unspecified) | inconclusive: 35.5 µM [activator, single point] | 
O=[N+]([O-])c1ccc(O)c(C2=NNC(c3ccccc3F)C2)c1 (stereo unspecified) | inconclusive: 15.8 µM [activator, partial curve, poor fit] | 
O=C(NN1C(=O)c2ccc(-c3ccc4c(c3)C(=O)N(NC(=O)c3cccnc3)C4=O)cc2C1=O)c1cccnc1 | inactive | 
CCOC(=O)c1c(NC(=O)COC(=O)c2cnccn2)sc(C)c1C | inconclusive: 22.4 µM [activator, partial curve, poor fit] | 
CC1CCC(NS(=O)(=O)c2cccc3nsnc23)CC1 (stereo unspecified) | inconclusive: 28.2 µM [activator, partial curve, poor fit] | 
